# The inconclusive results got no clear call from the source; some entries with a clear call stand among them for comparison. No potency is given beside an inconclusive call; the fits are too rough. Activity calls are given as the source filed them. Calls follow the shape of the dose curve; as a rule, active = well fitted inhibition curve with a large enough effect; inconclusive = small, poorly fitted or top-dose-only effect; inactive = flat fitted curve, though single readings scatter.
# Molecular target: Phospholipid hydroperoxide glutathione peroxidase GPX4 (Homo sapiens) (UniProt P36969)
# Test: Primary qHTS Assay for Inhibitors of Recombinant Selenoprotein Glutathione Peroxidase 4 (GPX4) (AID 1845192); also: nearly all actives have a fitted effect of over 65% in size
# Details: recombinant GPX4, GR-coupled NADPH fluorescence, 15 min; series mostly up to 50 µM
# In short: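 GR-coupled readout: 100 nM GR, 1 mM GSH, 0.5 mM NADPH; NADPH fluorescence (ex 340/em 450 nm) read at t=0 and after 15 min RT. GPX4 200 nM, preincubated 30 min with compound; substrate 0.5 mM CHP.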
# Potency is read from the fitted curve at half-maximal effect; tags tell the direction and shape of the fitted curve.
# Chain of UniProt P36969 (P36969 whole entry, looked up): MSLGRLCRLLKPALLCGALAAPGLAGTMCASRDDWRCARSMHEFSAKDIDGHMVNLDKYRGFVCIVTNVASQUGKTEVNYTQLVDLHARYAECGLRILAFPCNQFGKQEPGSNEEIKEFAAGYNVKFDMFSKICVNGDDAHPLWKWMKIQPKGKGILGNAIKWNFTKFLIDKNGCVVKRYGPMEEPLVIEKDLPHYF
row,SMILES,Potency
1,COc1cc(O)c(C(=O)Nc2nc(C(=O)NCCN(C(C)C)C(C)C)cs2)cc1OC,"inconclusive [inhibitor, partial curve, poor fit]"
2,CC1(C)S[C@H]2[C@H](NC(=O)[C@@H](N)c3ccc(O)cc3)C(=O)N2[C@H]1C(=O)O,inactive
3,Cc1onc(-c2c(F)cccc2Cl)c1C(=O)N[C@@H]1C(=O)N2[C@@H]1SC(C)(C)[C@H]2C(=O)O,"inconclusive [inhibitor, partial curve]"
4,CO/N=C(\C(=O)N[C@@H]1C(=O)N2C(C(=O)O)=C(CSc3nnnn3C)CS[C@H]12)c1csc(N)n1,"inconclusive [inhibitor, single point]"
5,OC[C@H]1O[C@H](O)[C@H](O)[C@@H](O)[C@@H]1O,"inconclusive [inhibitor, partial curve, poor fit]"
6,CO/N=C(\C(=O)N[C@@H]1C(=O)N2C(C(=O)O)=C(C[N+]3(C)CCCC3)CS[C@H]12)c1csc(N)n1,active: 17.8 µM
7,Cc1cc2nc3c(=O)[nH]c(=O)nc-3n(C[C@@H](O)[C@@H](O)[C@@H](O)COP(=O)(O)O)c2cc1C,active: 2.55 µM
8,O=C(N[C@H]1CCS[C@H]2CCC[C@@H](C(=O)O)N2C1=O)[C@@H](S)Cc1ccccc1,"inconclusive [inhibitor, partial curve, poor fit]"
9,CC1CCCC(C)N1C(=S)Nc1cccc(C(F)(F)F)c1 (configuration not stated),active: 11.2 µM
10,CCN1CCN(C(=O)N[C@@H](C(=O)N[C@]2(OC)C(=O)N3C(C(=O)O)=C(CSc4nnnn4C)CS[C@@H]32)[C@H](C)O)C(=O)C1=O,"inconclusive [inhibitor, partial curve]"
11,C[C@]12C=CC(=O)C=C1CCC1C2[C@@H](O)C[C@@]2(C)C1CC[C@]2(O)C(=O)COC(=O)CCC(=O)O (some centres not stated),"inconclusive [inhibitor, partial curve]"
12,CC1(COc2ccc(N3CCC(Oc4ccc(OC(F)(F)F)cc4)CC3)cc2)Cn2cc([N+](=O)[O-])nc2O1 (configuration not stated),"inconclusive [inhibitor, partial curve]"
